Our source for the displacement values is PubChem BioAssay AID1240 (Sanford-Burnham Center for Chemical Genomics, 2008).

Molecules are shown by their SMILES. The whole screen tested about 50,000 compounds, of which about 800 (1.6%) showed an effect of 50% or more. Some of the results follow.

In the assay the target is Bcl-2-like protein 10 (Homo sapiens) (UniProt Q9HD36). The experiment in a line: Phenotype converters, Bcl-B/TR3 peptide binding displacement, primary biochemical FP (AID 1240).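 Also: 0% = Bcl-B with tracer peptide and DMSO and 100% = tracer peptide lacking Bcl-B.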 To be noted: GST-Bcl-B / FITC-TR3 peptide fluorescence polarization; stronger effect = higher value; compound at 3.75 mg/L. Background: Fluorescence polarisation rises when a labelled molecule tumbles more slowly, as on binding a larger partner.
Chain of UniProt Q9HD36 (Q9HD36 whole entry, looked up): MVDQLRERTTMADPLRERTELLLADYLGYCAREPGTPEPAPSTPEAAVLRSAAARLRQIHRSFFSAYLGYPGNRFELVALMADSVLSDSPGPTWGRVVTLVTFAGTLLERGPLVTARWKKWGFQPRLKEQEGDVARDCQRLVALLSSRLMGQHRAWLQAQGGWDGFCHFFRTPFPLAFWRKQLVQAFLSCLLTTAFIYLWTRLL
Consider `COc1ccc(NC(=O)C(=O)NCc2ccc(Cl)cc2)cc1Cl`, for which the displacement was -3.9%.
In the case of `CCOc1ccc(NC(=O)CN(c2ccccc2OC)S(=O)(=O)c2ccccc2)cc1`, the displacement is -2.9%.
The value for `COc1ccc(S(=O)(=O)N2CCN(C3CCC(c4ccccc4)CC3)CC2)cc1` (centres undefined) was 16.9%; that for `O=S(=O)(Nc1ccc(Nc2ccccc2)cc1)c1ccccc1` was -0.6%; that for `CC(C)CN(CC(C)C)C(=O)c1ccccc1Br` was -2.2%.
The value for `COc1cc(NC(=O)c2cccs2)c(OC)cc1NC(=O)c1cccs1` was -6.2%; that for `COc1ccc(C(C)(C)C)cc1NC(=O)C1CC(=O)N(c2ccccc2)C1` (centres undefined) was 8.8%; that for `COc1ccc(CCC(=O)NCCC(c2ccccc2)c2ccccc2)cc1` was 1.4%.
The value for `O=C(c1ccc(F)cc1)N1CCN(c2ccc(Cl)cc2)CC1` was -5.6%; that for `N#Cc1c(/N=C/c2cc(Br)ccc2O)sc2c1CCN(Cc1ccccc1)C2` was 0.8%; that for `CCCC(=O)Nc1ccc2nn(-c3ccc(OCC)cc3)nc2c1` was -0.4%.
For `CCOc1cc(/C=N/NC(=O)c2cccnc2)ccc1OC(=O)c1ccc([N+](=O)[O-])cc1`, the displacement was determined as 7.1%.
The same measure for `CCn1ccnc1C(O)c1ccccc1OC` (centres undefined): 12%; for `COc1ccc(/C=C2\SC(=Nc3cccc(Cl)c3Cl)NC2=O)c(OC)c1`: -0.2%; for `C=CCOc1c(I)cc(C=C2C(=O)NC(=S)NC2=O)cc1OCC`: 9.6%.
Regarding `C/C(=N\NC(=O)c1cc(-c2ccccc2)n[nH]1)c1ccc([N+](=O)[O-])cc1`, the displacement was -15.5%.
The same measure for `CCOc1cc(/C=N/n2cnnc2)cc(Br)c1OCCOc1ccccc1OC`: -4.5%; for `O=[N+]([O-])c1ccc(C[n+]2cc(-c3ccc(Cl)c(Cl)c3)n3c2CCC3)cc1`: 9.6%; for `O=C1/C(=C/c2cc(Cl)cc(Cl)c2O)SC(=S)N1Cc1ccccc1`: 6%.
The same measure for `Cc1ccc(N2C(=O)C(=Cc3ccc(O)cc3)C(=O)N(c3ccc(C)cc3)C2=S)cc1`: -36.4%; for `COc1ccc(C(=O)N/C(=C\c2ccccc2)C(=O)NCCCN(C)C)cc1`: 9.9%; for `O=C(CNC(=O)c1ccc(F)cc1)N=Nc1c(O)n(Cc2ccc3c(c2)OCO3)c2ccccc12`: -17.6%.
The value for `CC(=O)CC(=O)Nc1ccc(Cl)cc1Cl` was 1.4%; that for `CCOC(=O)C1=CN(c2ccc(OCC)cc2)C=C(C(=O)OCC)C1c1ccccc1F` was -12.6%.
In the case of `CC(C)(C)c1ccc(C=NN2CCN(Cc3ccccc3Cl)CC2)cc1`, the displacement was -8.8%.
The value for `O=C1NC(=O)N(c2ccccc2)C(=O)/C1=C\c1ccc(-c2ccccc2[N+](=O)[O-])o1` was 2.7%; that for `CN1CCN(NC(=O)c2ccc(C(C)(C)C)cc2)CC1` was -3.4%; that for `O=C(NCc1ccco1)C(=O)Nc1ccc([N+](=O)[O-])cc1` was 9.2%.
`CCC(Oc1ccccc1)C(=O)Nc1sc(C)c(C)c1C#N` (centres undefined): the displacement came out at 7.8%.
Turning to `C=CCOc1ccc(S(=O)(=O)c2ccc(OCC=C)cc2)cc1`, the displacement turned out to be 12.4%.
In the case of `N/C(=N\OC(=O)c1ccc(I)cc1)c1ccc([N+](=O)[O-])cc1`, the displacement is -1.6%.
The value for `Cc1ccc(S(=O)(=O)N(C)c2cccc3cccnc23)cc1` was 16.1%; that for `CCOC(=O)c1c(-c2ccccc2)oc2cc(Br)c(O)cc12` was 10.8%.
With `O=C(CSc1nc2sc3c(c2c(=O)n1-c1ccc(Cl)cc1)CCCC3)c1ccccc1`, the displacement was -9.5%.
For the compound `C=CCn1c(SCC(=O)O)nc2sc3c(c2c1=O)CCC3`, the displacement was -4.5%.
The same measure for `CCOC(=O)c1c(NC(=O)c2ccc(Cl)c([N+](=O)[O-])c2)sc2c1CCC2`: 2%.
The same measure for `COC(=O)CCN1C(=O)/C(=C\c2ccc(C)cc2)SC1=S`: 0.6%.
On to `O=C(Nc1nnc(CCSCCc2nnc(NC(=O)c3ccco3)s2)s1)c1ccco1`, for which the displacement is -7.5%.
`COc1ccc(C(=O)N2CC(C)OC(C)C2)cc1[N+](=O)[O-]` (centres undefined): the displacement was -6.5%.
The same measure for `CC1=C(C(=O)Nc2ccccc2)C(c2ccc(Br)cc2)NC(=O)N1` (centres undefined): 14.6%; for `CCSc1nnc(NC(=O)c2cccc([N+](=O)[O-])c2)s1`: -4.2%; for `COc1ccc(N2C(=O)C(Cl)=C(Nc3cccc(OC)c3)C2=O)cc1`: 15.9%.
The value for `c1ccc(-c2cn3nc(-c4ccccc4)sc3n2)cc1` was 0.8%; that for `COc1ccccc1C(=O)N1CCN(Cc2cc(OC)c(O)c(OC)c2)CC1` was -2.7%.
The same measure for `Cc1cc(C)cc(CSCC(=O)Nc2c(C)n(C)n(-c3ccccc3)c2=O)c1`: 1.8%; for `CN1CN=C2SC3(COC(c4ccncc4)OC3)C(=O)N2C1` (centres undefined): 12.4%; for `COc1cc(NC(=O)c2cccc(Cl)c2)c(OC)cc1Cl`: -5.1%.
`CC(=O)n1cc(/C=C2\Sc3ccccc3C2=O)c(-c2ccccc2)n1`: the displacement was 145%.
Consider `CC(C)CC(=O)N1CCC(Cc2ccccc2)CC1`, for which the displacement is -1.9%.
The same measure for `CC(=O)c1ccc(NC(=O)c2ccc3c(c2)OCCO3)cc1`: 10.6%; for `Cc1cc([N+](=O)[O-])ccc1N[C@@H]1C[C@H](O)[C@@H](CO)O1`: 9.8%; for `COc1ccc(-c2cc(N3CCOCC3)c3cc(OC)c(OC)cc3c2)cc1OC`: 3.9%.
Consider `O=C(Nc1nc(-c2ccc3ccccc3c2)cs1)C1CC1`, for which the displacement was -6.7%.
Regarding `CC(=O)N1c2ccccc2N(Cc2ccc([N+](=O)[O-])cc2)C(=O)C1(C)C`, the displacement is 11%.
In the case of `C=CCN1C(=O)/C(=C\c2ccc(N(C)C)c(Br)c2)C(=O)NC1=S`, the displacement turned out to be 13.5%.
The same measure for `Cc1ccc(C(=O)N/C(=C/c2ccc(-c3ccc(Cl)cc3Cl)o2)C(=O)NCCCO)cc1`: 8.5%; for `CCc1cccc(C)c1NC(=O)/C=C/c1cccc([N+](=O)[O-])c1`: -0.6%.
The value for `CCOC(=O)CNC(=O)c1cccc(C)c1` was 0%; that for `Cc1ccc(-c2nn(-c3ccccc3)cc2/C=C/C(=O)c2cccs2)cc1` was 13.1%.
The same measure for `CS(=O)(=O)N(CC(=O)NCc1ccncc1)c1ccc(Oc2ccccc2)cc1`: 10.2%.
`O=C(N/N=C/c1ccc(F)cc1)C(=O)Nc1cccc(Cl)c1`: the displacement amounted to 5.5%.
On to `CCC1(C)CC(CCN)(c2ccc(C)cc2)CCO1` (centres undefined), for which the displacement came to 2.3%.
The value for `COc1ccc(N=C2SC(C(=O)N3CCN(c4ccccc4)CC3)CC(=O)N2C)cc1` (centres undefined) was -4.9%; that for `COc1ccc(CCNC(=O)c2cc(Cl)ccc2[N+](=O)[O-])cc1OC` was -3%; that for `COc1cc(/C=N/NC(=O)c2cccc(I)c2)ccc1OC(C)=O` was 4.2%.
For `Cc1ccc(N(CC(=O)Nc2cc(Cl)cc(Cl)c2)S(C)(=O)=O)cc1Cl`, the displacement is -3.1%.
The same measure for `O=c1c2cnn(-c3ccccc3)c2nc(-c2ccccc2F)n1-c1cccc(Cl)c1`: 3.5%; for `CNc1ccc2c(O)cc(S(=O)(=O)O)cc2c1`: 26.6%.
The value for `COC(=O)C1=C(C)N(CC2CCCO2)C(=O)/C1=C\c1ccc([N+](=O)[O-])cc1` (centres undefined) was 12.6%.
Turning to `O=C(O)CCCCCN1C(=O)/C(=C/c2c(F)cccc2Cl)SC1=S`, the displacement turned out to be 2.3%.
The value for `COc1cc(C(=O)Nc2cccc(F)c2)cc(OC)c1OC` was 5.4%; that for `COC(=O)c1c(NC(=O)/C=C\C(=O)O)sc(C)c1C` was -8.8%; that for `C=CCn1c2ccccc2c2nnc(SCN3C(=O)c4ccccc4C3=O)nc21` was 19%.
The same measure for `CCOC(=O)c1c(NC(=O)c2ccc(S(=O)(=O)N3CCCCCC3)cc2)sc(C(C)=O)c1C`: -1.3%.
The same measure for `O=C(/C=C/c1ccc(Cl)cc1Cl)NCc1ccccn1`: -3.7%.
`COc1ccc(-c2cc(-c3ccc(C)cc3)nc(N/N=C/c3cccnc3)n2)cc1OC`: the displacement came out at 1%.
The value for `Cc1occc1C(=O)NNC(=O)c1ccc(Cl)cc1` was 8.8%; that for `Cc1cc(NC(=O)COC(=O)C(CC(C)C)NC(=O)c2ccccc2)no1` (centres undefined) was 9.8%.
The same measure for `Cc1ccc(/C=C2\N=C(c3ccc(Cl)cc3)OC2=O)cc1`: 0%.
The value for `CCOc1cc(C=O)c(Br)cc1O` was -1.7%; that for `O=C1NN(c2ccccc2)C(=O)/C1=C/c1ccco1` was 21.9%.
On to `O=C(/C=C/c1ccccc1)Nc1nnc(-c2ccncc2)s1`, for which the displacement is -6%.
Take `COc1cc(OC)c(/C=C2\SC(=Nc3ccc(C)c(Cl)c3)NC2=O)cc1Br`: the displacement is -5.7%.
With `O=S(=O)(Nc1ccccc1F)c1ccc(F)cc1`, the displacement is -5.3%.
The same measure for `O=C(c1ccccc1)N(Cc1ccccc1)CC(O)(c1ccccc1)c1ccccc1`: 3.3%; for `COc1ccc(NC(=O)CN(c2ccccc2Cl)S(C)(=O)=O)cc1OC`: 3.6%.
As to `CCOC(=O)C1=C(O)/C(=C\c2ccc(OCC)cc2)N=C1C`, the displacement is 18.1%.
`O=Cc1ccc(OC(=O)c2cccnc2)cc1`: the displacement was -0.7%.
The same measure for `O=C(c1cccc([N+](=O)[O-])c1)c1ccc2c(c1)C(=O)NC2=O`: -13.3%.
Consider `CCC(=O)Nc1ccc(-c2nc3ccccc3o2)cc1`, for which the displacement worked out at 5.6%.
The same measure for `Cc1nnc(C)n1/N=C\c1ccccc1F`: -8.8%.
As to `Cc1cc(C)cc(N2C(=O)/C(=C/c3ccc(O)c(Cl)c3)C(=O)NC2=S)c1`, the displacement came to 6.5%.
On to `O=C(/C=C/c1cccs1)Nc1nc(-c2cccs2)cs1`, for which the displacement is -2.6%.
As for `COc1ccccc1C1NC(c2ccccc2OC)C2C(=O)C1C(c1ccccc1OC)NC2c1ccccc1OC` (centres undefined), the displacement is -12.9%.
Take `O=C(CSc1ccncc1)OCc1ccc([N+](=O)[O-])cc1`: the displacement was found to be 3.1%.
The same measure for `O=C(O)/C=C\C(=O)Nc1cccc(O)c1`: 15.1%; for `CC(C)(C#N)OC(=O)Nc1ccccc1`: 4.5%; for `O=C1c2ccccc2C(=O)c2c1cccc2N1CCN(CCO)CC1`: 0.1%.
The value for `O=C(NCC1(c2ccccc2)CCCC1)c1cc2ccccc2o1` was -5.7%; that for `CC(Oc1ccc(/C=C2/SC(=S)N(Cc3ccccc3)C2=O)cc1)c1ccccc1` (centres undefined) was 123%; that for `COc1ccc(C(=O)NCc2ccc(C)cc2)cc1OC` was 4.6%.
The value for `O=C(CN1C(=O)c2ccccc2C1=O)N1CCCCCC1` was -5.6%; that for `CCN(CC)CCCCOc1ccc(OC)cc1` was 3.1%.
For the compound `CC(C)c1ccc(N2C(=O)NC(=O)/C(=C/c3ccc4c(c3)OCO4)C2=O)cc1`, the displacement was -24.8%.
Consider `Cc1cc([N+](=O)[O-])ccc1NC(=O)c1cccc(N2C(=O)c3ccccc3C2=O)c1`, for which the displacement was -19%.
The value for `Cc1cc(C)c(OCC(=O)Nc2ccc(Br)cc2)c(C)c1` was 9.9%; that for `CCCOC(=O)c1cccc(NC(=O)COc2ccc([N+](=O)[O-])cc2)c1` was -7.3%.
Regarding `COC(=O)C1=C(C)N(CC2CCCO2)C(=O)/C1=C\c1ccc(OC)c([N+](=O)[O-])c1` (centres undefined), the displacement is -7.3%.
As for `CC(NC(=O)CCN1CCOCC1)C1COc2ccccc2O1` (centres undefined), the displacement was -3.5%.
